This is an account of results in PubChem BioAssay AID360 (National Center for Advancing Translational Sciences (NCATS), 2006).

The campaign covered roughly 48,000 compounds. About 550 (1.1%) were called active. About 4% were inconclusive and are not listed. Rule as the data show it: active = potency below about 15 µM; inconclusive = mostly about 16 µM to 33 µM; inactive = weaker than that. The list shows a part of the results. Bounds are passed on as bounds.
Potency is read from the fitted curve at half-maximal effect.

Sequence of UniProt P04062 (P04062 whole entry, looked up): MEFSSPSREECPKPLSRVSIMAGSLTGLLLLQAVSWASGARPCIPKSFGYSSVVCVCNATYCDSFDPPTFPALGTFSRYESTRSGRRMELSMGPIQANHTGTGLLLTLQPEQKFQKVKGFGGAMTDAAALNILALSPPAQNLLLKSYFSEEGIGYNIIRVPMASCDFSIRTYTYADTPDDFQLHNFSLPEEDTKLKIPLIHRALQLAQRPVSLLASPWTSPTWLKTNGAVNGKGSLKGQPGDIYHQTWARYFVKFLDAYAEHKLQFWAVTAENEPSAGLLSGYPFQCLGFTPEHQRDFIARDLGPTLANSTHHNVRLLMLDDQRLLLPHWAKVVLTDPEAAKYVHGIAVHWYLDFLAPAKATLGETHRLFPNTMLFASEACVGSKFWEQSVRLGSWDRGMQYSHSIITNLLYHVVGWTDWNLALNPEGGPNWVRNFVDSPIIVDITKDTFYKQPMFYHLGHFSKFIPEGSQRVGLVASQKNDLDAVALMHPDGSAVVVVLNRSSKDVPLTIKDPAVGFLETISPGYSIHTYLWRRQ

The assay has as its target Lysosomal acid glucosylceramidase (Homo sapiens) (UniProt P04062). As to the kind of experiment: Glucocerebrosidase.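 Also: the screen sought inhibitors.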 The conditions noted are these: purified enzyme, resorufin glucoside fluorescence (screen aimed at inhibitors), 20 min. In a few lines:
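Normal human glucocerebrosidase (0.2 nM final) was assayed with resorufin β-D-glucopyranoside (30 uM final) in 50mM citric acid/KH2PO4, 10mM sodium taurocholate, 0.01% tween-20, pH 5.9. Compounds were titrated; fluorescence (Ex 548, Em 600) read after 20 min at RT.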
`CCOC(=O)C1CCN(C(=O)c2cc(S(=O)(=O)N3CCOCC3)c(Cl)cc2Cl)CC1`: the Potency was inactive: > 76.9 µM.
Take `Cc1ccc(-n2nc3c(c2NC(=O)c2c(-c4ccccc4Cl)noc2C)CS(=O)(=O)C3)c(C)c1`: the Potency was inactive: > 76.9 µM.
As to `Cc1c(C(=O)O)sc2ncn(C)c(=O)c12`, the Potency is inactive: > 76.9 µM.
For `CCOc1ccc(OCC)c(NC(=O)c2[nH]c(C)c(C(C)=O)c2C)c1`, the Potency is inactive: > 76.9 µM.
The result for `CCOC(=O)CSc1cc(C)nc(N)n1` reads inactive: > 76.9 µM.
`Cc1ccc(CN(C(=O)c2c(F)cccc2F)C2CC(C)(C)NC(C)(C)C2)o1`: the Potency is inactive: > 76.9 µM.
As for `COc1ccc(CCn2c(C)cc(C(=O)CSc3nnnn3C)c2C)cc1`, the Potency was inactive: > 76.9 µM.
For the compound `COc1ccc(C)cc1NC(=O)CSc1nnc(-c2ccccn2)n1Cc1ccco1`, the Potency is inactive: > 76.9 µM.
As for `CCn1c(SCC#N)nc2c(c1=O)C1(CCCC1)Cc1ccccc1-2`, the Potency is inactive: > 76.9 µM.
For `CCCC(=O)N(CCc1ccccc1)Cc1nc2ccccc2c(=O)[nH]1`, the Potency was inactive: > 76.9 µM.
Turning to `COc1cccc(OCc2nnc(SCC(=O)OC3CCCCC3)n2C)c1`, the Potency is inactive: > 76.9 µM.
Consider `O=C(O)CCc1ccc(-c2ccccc2)n1CC(=O)O`, for which the Potency is inactive: > 76.9 µM.
As for `COc1cc(C(=O)Nc2ccc3c(c2)OCO3)ccc1-n1cnnn1`, the Potency is inactive: > 76.9 µM.
In the case of `O=C(CC1COc2ccccc2O1)Nc1ccccn1` (stereo not given), the Potency is inactive: > 76.9 µM.
As for `CCCOc1c(OC)cccc1C1CC(=O)Nc2cc(OC)c(OC)c(OC)c21` (stereo not given), the Potency was inactive: > 76.9 µM.
Turning to `COc1ccc(CCNC(=O)C2CCCN(Cc3nc(-c4cccc(Cl)c4)oc3C)C2)cc1OC` (stereo not given), the Potency result was “inactive”.
As for `O=C(CSc1nc2ccccc2c(=O)n1C1CC1)NCc1ccccc1`, the Potency was inactive: > 76.9 µM.
For `CCCOc1ccccc1-c1nc(SCCC(=O)O)n[nH]1`, the Potency is inactive: > 76.9 µM.
Consider `O=C(CCn1ccc2ccccc21)Nc1ccc(N2CCOCC2)cc1`, for which the Potency was inactive: > 76.9 µM.
`CC1(C)NC(=O)N(CCOCCOc2cccc(Oc3ccccc3)c2)C1=O`: the Potency is inactive: > 76.9 µM.
The result for `CCOC(=O)c1cnc(SCC(=O)Nc2cc(OC)cc(OC)c2)nc1N` reads inactive: > 76.9 µM.
In the case of `O=C(Nc1nc2ccccc2n1CCN1CCCC1)C1CCCCC1`, the Potency is inactive: > 76.9 µM.
In the case of `CN(C)c1nc(SCCOC(=O)c2ccccc2)nc(N(C)C)n1` it was inactive: > 76.9 µM; in that of `O=C(CCNC(=O)c1ccc(Br)o1)NC1CCCC1`, inactive: > 76.9 µM; in that of `CCOC(=O)C1=C2SCCN2C(=O)C(C#N)C1(C)C` (stereo not given), inactive: > 76.9 µM.
The result for `COc1ccc(N(C)C(=O)CCS(=O)(=O)c2cccc3nonc23)cc1` reads inactive: > 76.9 µM.
For `O=C(c1ccco1)N1CCN(S(=O)(=O)c2ccc(S(=O)(=O)NC3CC3)cc2)CC1`, the Potency is inactive: > 76.9 µM.
Consider `CCOC(=O)c1nn(-c2ccccc2)c(C(=O)OCC)c1N`, for which the Potency was inactive: > 76.9 µM.
Consider `COc1ccccc1OCC(=O)c1[nH]c(C)c(C(C)=O)c1C`, for which the Potency was inactive: > 76.9 µM.
`COC(=O)c1nc2nc(C)cc(C(F)(F)F)n2n1`: the Potency was inactive: > 76.9 µM.
For the compound `CCOc1ccc(NC(=O)CSc2nnc(Cc3cccn3C)n2-c2ccc(OC)cc2)cc1`, the Potency is inactive: > 76.9 µM.
The result for `CCn1c(CNc2ccc(F)cc2)nnc1SCC(=O)OC1CCCCC1` reads “inactive”.
In the case of `CC(C)CCNC(=O)CCCn1c(=O)[nH]c2ccc(Br)cc2c1=O` it was inactive: > 76.9 µM.
With `CCOc1ccccc1-c1nnc(SCC(=O)NC2CC3CCC2C3)n1CC` (stereo not given), the Potency was inactive: > 76.9 µM.
In the case of `Cc1cccc(OCC(=O)NCCN2CCOCC2)c1`, the Potency was inactive: > 76.9 µM.
The result for `CCN1CCN(C(=O)CN(Cc2ccccc2)S(C)(=O)=O)CC1` reads inactive: > 76.9 µM.
For the compound `COc1ccc(C)cc1NC(=O)CSc1nnnn1Cc1ccccc1`, the Potency is inactive: > 76.9 µM.
In the case of `Cc1ccc(-n2ncc3c(=O)[nH]c(SCC(=O)N4CCOCC4)nc32)cc1` it was inactive: > 76.9 µM.
Turning to `COC(=O)C1=C(N)Oc2cc(C)n(CCN3CCOCC3)c(=O)c2C1c1cccnc1` (stereo not given), the Potency is inactive: > 76.9 µM.
With `Cc1ccc2nc(C(O)C(O)c3nc4ccc(C)cc4[nH]3)[nH]c2c1` (stereo not given), the Potency is inactive: > 76.9 µM.
As to `CCC(=O)Nc1c(C(=O)Nc2cccc(OC)c2)oc2ccccc12`, the Potency was inactive: > 76.9 µM.
Turning to `COCCN(Cc1cc2cc3c(cc2[nH]c1=O)OCO3)C(=O)c1cccs1`, the Potency was inactive: > 76.9 µM.
On to `Cc1nn(CC(O)Cn2c3c(c4ccccc42)CCN(C)C3=O)c(C)c1Br` (stereo not given), for which the Potency is inactive: > 76.9 µM.
For the compound `COc1ccc2c(Cl)c(C(=O)NC3CCS(=O)(=O)C3)sc2c1` (stereo not given), the Potency is inactive: > 76.9 µM.
In the case of `CCOC(=O)c1cc2n(n1)C(C(F)(F)F)CC(C)N2` (stereo not given), the Potency was inactive: > 76.9 µM.
As to `CCNc1c2c3c(cccc3n(C)c1=O)C(=O)c1ccccc1-2`, the Potency is inactive: > 76.9 µM.
As for `Cn1c(=O)c2c(ncn2CC(=O)N(Cc2ccccc2)c2ccccn2)n(C)c1=O`, the Potency is inactive: > 76.9 µM.
For `c1ccc(-c2cccc(-c3ccccn3)n2)nc1`, the Potency is inactive: > 76.9 µM.
For the compound `COc1ccc(OC(C)C(=O)NC2CC(C)(C)NC(C)(C)C2)cc1` (stereo not given), the Potency was inactive: > 76.9 µM.
With `O=C(c1cc2cc3ccc(Cl)cc3nc2o1)N1CCN(Cc2ccc3c(c2)OCO3)CC1`, the Potency was inactive: > 76.9 µM.
The result for `O=C(c1cc2c(=O)oc3ccccc3c2s1)N1CCN(c2ncccn2)CC1` reads inactive: > 76.9 µM; that for `CCc1ccc(CCC(=O)Nc2ccc(C)c(C)c2)o1`, inactive: > 76.9 µM.
Consider `CCOC(=O)c1sc(C)c2c1NC1(CCCCC1)NC2=O`, for which the Potency is inactive: > 76.9 µM.
For the compound `Cn1c(=O)c2nnn(/N=C(\c3ccccc3)C3CC3)c2n(C)c1=O`, the Potency is inactive: > 76.9 µM.
Regarding `CCOC(=O)c1ccc(NC(=O)CSc2nnc(COc3ccccc3OC)n2CC)cc1`, the Potency was inactive: > 76.9 µM.
Regarding `CC(C)NC(=O)C1CCN(C(=O)C(C(=O)c2ccccc2)n2cc(Cl)ccc2=O)CC1` (stereo not given), the Potency was inactive: > 76.9 µM.
Consider `CC(=O)Nc1ccccc1Sc1ccccc1`, for which the Potency is inactive: > 76.9 µM.
In the case of `COc1cccc(C2/C(=C(\O)c3c(C)nc4c(C)cccn34)C(=O)C(=O)N2CCCN(C)C)c1OC` (stereo not given) it was inactive: > 76.9 µM; in that of `Nc1c(C(=O)OCC2CCCO2)c2nc3ccccc3nc2n1C1CCCC1` (stereo not given), inactive: > 76.9 µM.
Take `N#Cc1cccc(NC(=O)Nc2cccs2)c1`: the Potency is inactive: > 76.9 µM.
For the compound `CN(CCCNC(=O)C1CCN(S(=O)(=O)N2CCC3(CC2)OCCO3)CC1)Cc1ccccc1`, the Potency is inactive: > 76.9 µM.
For the compound `COc1ccc(N2CCCn3c2nc2c3c(=O)n(CCN3CCOCC3)c(=O)n2C)cc1`, the Potency was inactive: > 76.9 µM.
Turning to `CCN(CC)c1ccc2c(c1)CCCN2`, the Potency was inactive: > 76.9 µM.
Take `O=C(c1noc2c1CCc1ccccc1-2)N1CCCc2ccccc21`: the Potency was inactive: > 76.9 µM.
Turning to `O=C(CS(=O)(=O)Cc1ccccc1)N1CCc2ccccc21`, the Potency was inactive: > 76.9 µM.
`O=C(CN1C2CCCC1CC(NC(=O)c1ccco1)C2)Nc1ccccc1C(F)(F)F` (stereo not given): the Potency was inactive: > 76.9 µM.
Turning to `COc1ccc(-c2nc(SC)n(C(=O)c3ccco3)n2)cc1`, the Potency is inactive: > 76.9 µM.
In the case of `Cc1ccc(N(CC2=NCCN2)c2cccc(O)c2)cc1`, the Potency was inactive: > 76.9 µM.
In the case of `Cn1nnnc1SCc1nnc(-c2ccc(Cl)cc2)o1` it was inactive: > 76.9 µM.
The result for `Cc1cccc(OCCC(=O)NCC(c2ccccc2)N(C)C)c1` (stereo not given) reads inactive: > 76.9 µM.
For `CN(C)c1ccc(NC(=O)Cn2ncn3c(cc4ccccc43)c2=O)cc1`, the Potency is inactive: > 76.9 µM.
For the compound `O=C(C1CC1)N1CCc2cc(Br)cc(S(=O)(=O)NCCN3CCOCC3)c21`, the Potency is inactive: > 76.9 µM.
In the case of `CCOC(=O)C(NCc1ccccn1)(NC(=O)c1cccnc1)C(F)(F)F` (stereo not given), the Potency is inactive: > 76.9 µM.
Regarding `CCCCn1c(=O)[nH]c(=O)c2c1nc(CN1C(=O)c3ccccc3S1(=O)=O)n2CCC`, the Potency was inactive: > 76.9 µM.
Regarding `CC1Cc2ccccc2N1S(=O)(=O)c1cccc(C(=O)NC2CC2)c1` (stereo not given), the Potency was inactive: > 76.9 µM.
For `Cc1cc(NC(=O)CSc2nc3ccsc3c(=O)n2Cc2ccccn2)n[nH]1`, the Potency is inactive: > 76.9 µM.
For `c1cc(-c2nc3ccccc3o2)nc(-c2nc3ccccc3o2)c1`, the Potency was inactive: > 76.9 µM.
Turning to `O=c1c2ccccc2ncn1C1CCCCC1`, the Potency is inactive: > 76.9 µM.
In the case of `COc1ccc(C2NC(c3ccc(OC)c(OC)c3OC)C(C)C(=O)C2C)c(OC)c1OC` (stereo not given) it was inactive: > 76.9 µM; in that of `CC(C)Cc1nnc(NC(=O)CCC(=O)N2CCOCC2)s1`, inactive: > 76.9 µM; in that of `Cc1cc(C)cc(CC2CC(=O)N(c3ccc4c(c3)OCCO4)C2=O)c1` (stereo not given), inactive: > 76.9 µM.
For the compound `Cn1c(=O)[nH]c(=O)c2c1ncn2CCN1CCOCC1`, the Potency was inactive: > 76.9 µM.
`Cc1ccn2cc(C(=O)NC3CCN(Cc4ccccc4)CC3)nc2c1`: the Potency was inactive: > 76.9 µM.
`CCCc1cc(-n2ccnc2)n2c(nc3ccccc32)c1C#N`: the Potency is inactive: > 76.9 µM.
Take `COCc1cc(=O)[nH]c(Nc2nc(C)c3ccc(C)cc3n2)n1`: the Potency is inactive: > 76.9 µM.
As to `O=C(Cn1c(=O)c2c(ncn2Cc2ccccc2)n(Cc2ccccc2)c1=O)N1CCCC1`, the Potency was inactive: > 76.9 µM.
In the case of `CCOC(=O)C1CCN(C(=O)C2CCCCC2)CC1` it was inactive: > 76.9 µM.
As to `O=C(O)CCCC(=O)Nc1ccc(C(=O)N2CCCCC2)c(Cl)c1`, the Potency is inactive: > 76.9 µM.
With `COC(=O)C1=C(CN2CCN(C)CC2)NC(=O)NC1c1cc(C)ccc1C` (stereo not given), the Potency was inactive: > 76.9 µM.
Take `COC(=O)c1ccccc1NC(=O)CN1CCC(NC(=O)c2ccc(C)cc2)CC1`: the Potency was inactive: > 76.9 µM.
